Among all 46,000 compounds or so, about 60 (0.1%) were called active. Not shown: some 3% with an inconclusive outcome. Calls follow the shape of the dose curve; as a rule, active = well fitted inhibition curve with a large enough effect; inconclusive = small, poorly fitted or top-dose-only effect; inactive = no such curve, though single readings can be large or run the other way. This is one part of the list.
assay: Primary qHTS assay for Inhibitors of ovarian cancer metastasis using an organotypic tumor microenvironment (TME) model.; also: nearly all actives have a fitted effect of over 65% in size;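 as to activity change, negative = inhibition: plate controls were DMSO wells for no effect and tomatine positive control wells for full effect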; conditions: SKOV3ip1-GFP adhesion/invasion on 3D omental model, fluorescence; series mostly up to 45.8 µM; activity change, negative = inhibition: at the top concentration
Outline: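 qHTS, 4-pt dose (0.36-46 umol/L); SKOV3ip1-GFP, 1,200 cells/well, no FBS; primary omental fibroblast/mesothelial co-culture 48 h pre-grown; 2 h RT + 16 h 37 C; PBS wash, 4% PFA; GFP count 488/509 nm.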

Activity change, negative = inhibition, inactive:
CCOc1ccc2nc(Cl)c(C3CC(c4ccc(C)cc4)=NN3C(=O)CCCC(=O)O)cc2c1 (centres undefined) 23%
Cc1ccc2c(=O)cc(C(=O)Nc3ccc(S(=O)(=O)N4CCCCC4)cc3)oc2c1C 4.27%
COc1ccccc1Nc1nc2c(S(=O)(=O)c3ccc(C(C)C)cc3)nnn2c2ccsc12 4.74%
COc1ccccc1Cc1nc2ccccc2nc1SCC(=O)NCc1ccc(F)cc1 -21.6%
Cc1c(-c2ccccc2)n(-c2ccc(Cl)cc2)c2nc3c(c(=O)n(C)c(=O)n3C)n12 7.62%
Cc1coc2cc3oc(=O)c(CC(=O)NCCc4ccccc4F)c(C)c3cc12 4.37%
Cc1ccc(NC(=O)CCc2nc3cccnc3n2-c2ccccc2)cc1 1.72%
Cc1cc(C)c2oc(-c3ccc(NC(=O)c4cc(Br)ccc4Cl)cc3)nc2c1 5.95%
O=C(c1ccccc1Cl)n1nc(-c2ccco2)nc1NCc1cccs1 1.72%
CCOc1cc2ncc(C#N)c(Nc3ccc(F)c(Cl)c3)c2cc1NC(=O)C=CCN(C)C -2.34%
Cc1nc2cnc3ccc(C#Cc4cccnc4)cc3c2n1-c1ccc(C(C)(C)C#N)cc1 -11.9%
CCc1ccc(S(=O)(=O)NCCc2cn3ccsc3n2)cc1 8.83%
CC(=O)N1CCCc2cc(S(=O)(=O)N(C)CC(=O)Nc3cccc(Cl)c3C)ccc21 -0.713%
Cn1c(=O)c2cc(S(=O)(=O)NC(Cc3ccccc3)C(=O)Nc3ccc(F)cc3)ccc2n(C)c1=O (centres undefined) 7.64%
COc1ccc(OC)c(CCNc2ncnc3onc(-c4ccc(Cl)cc4)c23)c1 48.1%
Cc1cccc(CNC(=O)c2cnc3c(-c4cccc(C)c4)c(C)nn3c2C)c1 -2.76%
CCOC(=O)c1ccc(CN(Cc2ccc(F)cc2)S(=O)(=O)c2ccc(F)c(C(=O)Nc3cc(Cl)ccc3OC)c2)cc1 -1.07%
Cc1ccccc1Cn1c2ccccc2c2cnn(CC(=O)NCc3cccc(Cl)c3)c(=O)c21 -8.37%
Cn1cc(-c2cc3n(n2)CCC(=O)N3CCCC(=O)Nc2ccc(Cl)cc2)c2ccccc21 1.64%
CC(C)c1ccc(OCC(=O)Nc2ccc(S(=O)(=O)Nc3ncccn3)cc2)cc1 -23.3%

outcome, inactive:
Cc1cccc(N2CCN(c3ncnc4onc(-c5ccc(F)cc5)c34)CC2C)c1 (centres undefined)
O=C(CC(c1cccs1)N1Cc2ccccc2C1=O)Nc1ccc(Cl)cc1 (centres undefined)
O=C(Cn1c(=O)n(Cc2ccc(C(=O)NCc3ccccc3Cl)cc2)c(=O)c2ccccc21)Nc1ccc(F)cc1
CCCCC(=O)N1c2ccccc2C(C)(c2ccccc2)CC1(C)C (centres undefined)
Cc1nc(-n2nc(C)c(Cc3ccc(Cl)cc3)c2C)sc1C(=O)N1CCC(C)CC1
Cc1ccc(NC(=O)CSc2nc3c(oc4ccccc43)c(=O)n2Cc2ccco2)cc1F
Cc1ccc(N2CCN(C(=O)c3c(C)oc4ncn(C)c(=O)c34)CC2)c(C)c1
CCN(CC)c1ccc(NC(=O)COCc2cc(-c3ccc4c(c3)OCO4)on2)c(C)c1
COc1ccc(CNC(=O)c2cc3c(=O)n(Cc4ccco4)ccc3nc2C)c(OC)c1

Source: PubChem BioAssay AID1963576 (National Center for Advancing Translational Sciences (NCATS), 2024)
